Reference: article PMC4336329 (PLoS ONE, 2015)
Among all 310,000 compounds or so, about 2,200 (0.71%) showed an effect of 50% or more. The effect is printed as a negative number. The list shows a part of the results.

Target: human ether-à-go-go-related gene (hERG) potassium channel (human, UniProt Q12809)
Experiment: primary screen, population patch clamp on CHO cells stably expressing hERG

Sequence of human ether-à-go-go-related gene (hERG) potassium channel (Q12809 whole entry, looked up): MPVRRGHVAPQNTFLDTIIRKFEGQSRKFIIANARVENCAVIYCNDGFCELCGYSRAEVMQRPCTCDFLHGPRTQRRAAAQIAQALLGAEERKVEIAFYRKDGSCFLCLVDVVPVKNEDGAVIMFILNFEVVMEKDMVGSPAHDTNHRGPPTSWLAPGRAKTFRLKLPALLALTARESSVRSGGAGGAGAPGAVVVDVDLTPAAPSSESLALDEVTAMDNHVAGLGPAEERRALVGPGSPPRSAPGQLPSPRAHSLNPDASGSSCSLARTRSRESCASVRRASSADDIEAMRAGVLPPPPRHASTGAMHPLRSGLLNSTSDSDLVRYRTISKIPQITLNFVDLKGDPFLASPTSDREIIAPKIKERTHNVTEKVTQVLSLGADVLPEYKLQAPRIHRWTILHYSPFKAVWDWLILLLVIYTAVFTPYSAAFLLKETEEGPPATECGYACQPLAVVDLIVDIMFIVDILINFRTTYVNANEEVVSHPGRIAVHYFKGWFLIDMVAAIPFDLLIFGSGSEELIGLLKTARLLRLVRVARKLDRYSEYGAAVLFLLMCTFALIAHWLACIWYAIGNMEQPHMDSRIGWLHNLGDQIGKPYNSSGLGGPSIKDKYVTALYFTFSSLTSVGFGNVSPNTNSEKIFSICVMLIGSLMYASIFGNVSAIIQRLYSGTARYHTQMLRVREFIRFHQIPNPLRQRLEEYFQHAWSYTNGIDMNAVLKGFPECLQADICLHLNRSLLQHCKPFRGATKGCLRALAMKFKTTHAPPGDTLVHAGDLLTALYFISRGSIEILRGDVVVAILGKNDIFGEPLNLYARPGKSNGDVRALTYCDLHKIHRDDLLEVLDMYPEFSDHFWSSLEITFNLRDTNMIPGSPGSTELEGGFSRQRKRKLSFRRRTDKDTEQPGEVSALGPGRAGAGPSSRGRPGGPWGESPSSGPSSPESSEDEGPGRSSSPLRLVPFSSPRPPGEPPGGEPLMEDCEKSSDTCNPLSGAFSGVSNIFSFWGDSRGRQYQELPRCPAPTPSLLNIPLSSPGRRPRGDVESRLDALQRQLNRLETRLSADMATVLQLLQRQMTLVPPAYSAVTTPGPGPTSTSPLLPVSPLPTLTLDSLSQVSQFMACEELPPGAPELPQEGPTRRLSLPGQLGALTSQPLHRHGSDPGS

| Structure (SMILES) | hERG current change (%, negative = inhibition) at 1uM [%] |
| --- | --- |
| O=C(O)CSC(=S)N1CC2CC(C1)c1cccc(=O)n1C2 (stereo not drawn) | 7.56 |
| O=C(OCC(=O)c1ccccc1Cl)c1cnccn1 | 6.94 |
| COCCSc1ccccc1C(=O)Nc1nnc(COC)s1 | 8.38 |
| Cc1cn(C(=O)c2cccc(Br)c2)c(C)n1 | 16.5 |
| COc1ccccc1CNC(=O)C1CSC2(C)CCC(=O)N12 (stereo not drawn) | 4.82 |
| O=C(O)C[C@H]1c2ccccc2S(=O)(=O)N1c1ccccc1 | 13.9 |
| Cc1ccsc1C1Nc2ccccc2-c2nc3ccccc3n21 (stereo not drawn) | 8.22 |
| CN(C(=O)c1nc(-c2ccccc2)n(-c2ccccc2)n1)C1CCS(=O)(=O)C1 (stereo not drawn) | 12 |
| O=C(COC(=O)[C@H](Cc1ccccc1)NS(=O)(=O)c1ccccc1F)NC1CCCCC1 | 1.02 |
| CC(=O)Nc1cccc(OCc2ccc(F)cc2)c1 | 8.2 |
| CN(C)CCNc1oc(/C=C/c2ccccc2)nc1C#N | -1.1 |
| COCCNC(=O)CSc1nc2ccccc2c(=O)n1CCC(=O)N1CCN(c2ccccc2)CC1 | 6.84 |
| COc1ccc(C(=O)c2sc(Nc3ccc(NC(C)=O)cc3)nc2C)cc1 | 12.5 |
| COc1ccc(-c2occ(C(=O)O)c2C(=O)O)cc1 | -1.17 |
| C/C(=N\Nc1cc(N2CCOCC2)ncn1)c1ccccc1 | 12.1 |
| CC(=O)/C(N=Nc1c(C)n(C)n(-c2ccccc2)c1=O)=C(\C)O | 15.1 |
| Cn1c(SCC(=O)c2ccc(O)c(O)c2)nnc1-c1cccs1 | 11.4 |
| C#CCOC(=O)Nc1cc(C)n(-c2ccccc2)n1 | 5.54 |
| CC(C)COC(=O)n1c(SCC(=O)N(C)C)nc2ccccc21 | 3.66 |
| COC(Cn1c(C)c(C(C)=O)c(C(C)=O)c1C)OC | 11.6 |
| O=C(CCCn1c(=O)[nH]c2ccccc2c1=O)NC1CCCCCC1 | 0.995 |
| O=C(c1nc2ccccn2c1CNCCCn1ncc2ccccc21)N1CCCC1 | -11.9 |
| N#CC1(c2ccccc2)CCN(C2CC(=O)N(c3ccc(F)cc3)C2=O)CC1 (stereo not drawn) | 18.4 |

| Structure (SMILES) | hERG current change (%, negative = inhibition) at 1uM [%] |
| --- | --- |
| CCN(CC)S(=O)(=O)c1cc(C(=O)Oc2cccc(-c3cnc4ccccc4n3)c2)ccc1Br | 18.5 |
| CN(C(=O)CN1CCC(NC(=O)C2CCCCC2)CC1)C1CCCCC1.Cl | 6.42 |
| Cc1cccc(-c2noc(CCCC(=O)Nc3cccnc3)n2)c1 | -4.05 |
| CC(C)OCCCNC(=O)C1CCC(CNS(=O)(=O)c2cccc3nsnc23)CC1 (stereo not drawn) | 1.82 |
| CNc1ccc(C(=O)c2ccccc2C(=O)O)cc1[N+](=O)[O-] | 9.38 |
| Cn1c(SCC(=O)Nc2cccc(F)c2)nnc1-c1cccnc1 | -6.1 |
| CCOC(=O)C1CCN(c2nc(C)cc(C)c2C#N)CC1 | 9.6 |
| O=[N+]([O-])c1ccc(C2CN=C(Nc3ccccc3)S2)cc1 (stereo not drawn) | 8.51 |
| CCC1CCCCN1CCCNC(=O)c1ccc2nc(N3CCCCC3)sc2c1 (stereo not drawn) | 4.74 |
| Cc1cc(C)nc(SCc2nc3ncccn3c2Br)n1 | 8.24 |
| CN1C(C(=O)Nc2ccc(C(=O)O)cc2)=C(O)c2ccccc2S1(=O)=O | 14 |
| COc1ccccc1Cn1c(=S)[nH]c2cc(C(=O)N3CCN(c4ccccc4OC)CC3)ccc2c1=O | 17.7 |
| CCC(C)NC(=O)CN(c1cc(C)ccc1OC)S(C)(=O)=O (stereo not drawn) | 5.6 |
| N#Cc1c2ccc(OCC(=O)NCc3ccco3)cc2n2ccccc12 | 15.6 |
| COc1ccc(CCNC(=O)c2cc(S(=O)(=O)N3CCCC3)cn2C)cc1OC | 10.5 |
| Cc1cnc(C(=O)Nc2ccc(N3CCN(C(=O)OC(C)(C)C)CC3)cc2)cn1 | 14.9 |
| COc1ccc(S(=O)(=O)N2CCC(C(=O)N3CCN(C)CC3)CC2)cc1Cl | 15 |
| Cc1ccc(NC(=O)c2cncc(Br)c2)c(O)c1 | 12.9 |
| COc1ccc(CC(=O)NC2CCN(CC(=O)N3CCCc4ccccc43)CC2)cc1OC.Cl | 7.49 |
| COc1ccc2oc(/C=C/N(C)C)c(C(=O)c3ccc(Cl)cc3)c2c1 | 14 |
| CC1CN2C(c3ccc([N+](=O)[O-])cc3)=CSC2=N1 (stereo not drawn) | -6.14 |
| Cc1ccc(NC(=S)N2CCCCC2CO)cc1C (stereo not drawn) | 2.18 |
| O=C(c1cccc(F)c1)N1CCCc2ccccc21 | 11.5 |

| Structure (SMILES) | hERG current change (%, negative = inhibition) at 1uM [%] |
| --- | --- |
| O=c1[nH]c(C2CCN(S(=O)(=O)c3cccc([N+](=O)[O-])c3)CC2)nc2c1nnn2Cc1ccccc1 | 7.49 |
| c1cc2ccc3ccc(-n4cnnn4)c4ccc(c1)c2c34 | -7.42 |
| Cc1ccc(N(CC(=O)Nc2ccc3c(c2)OCCO3)S(=O)(=O)c2c(C)n[nH]c2C)cc1 | 6.93 |
| CC(C)C(=O)Nc1nnc(SCC(=O)NCc2cccs2)s1 | 6.18 |
| CCCN(CC1CC1)c1nc(C)nc(Nc2c(Cl)cc(Cl)cc2Cl)c1Cl | 4.48 |
| COc1ccc2c(C)c(C)c(=O)oc2c1OC | 6.83 |
| COC(=O)C(O)(c1c[nH]c2ccccc12)C(F)(F)F (stereo not drawn) | 2.07 |
| CN(C)/C=C(\C#N)C(=O)Nc1ccc(F)cc1 | 4.58 |
| CC(=O)C[C@@H](O)CC(=O)[C@H]1OC(=O)CC/C=C\Cc2ccccc21 | 17.6 |
| Cc1ccc2c(CSc3nnnn3C)cc(=O)oc2c1 | 6.3 |
| CCOC(=O)C1CCN(S(=O)(=O)CCNC(=O)c2ccc(F)cc2)CC1 | -4.36 |
| O=c1[nH]c(CN2CC=C(c3ccccc3)CC2)nc2scc(-c3cccs3)c12 | 14.1 |
| CC(=O)N1N=C2C3CCN(CC3)C2C1c1ccc(C)cc1 (stereo not drawn) | 19.7 |
| O=C1CC(N2CCN(c3ccc(O)cc3)CC2)C(=O)N1c1ccc2c(c1)OCO2 (stereo not drawn) | 10.5 |
| O=C(CCSc1ccccc1)Nc1ccc(S(=O)(=O)Nc2ncccn2)cc1 | 8.35 |
| O=C(Cc1cc(=O)[nH][nH]1)N/N=C/C(Cl)=C/c1ccccc1 | 10.1 |
| Cc1ccc(NC(=S)N2CCC(NC(=O)c3ccc(C)cc3)CC2)cc1 | 8.19 |
| C/C(=N/NC(=O)CNC(=O)c1cccc(F)c1)c1ccc2c(c1)CCCC2 | 15.9 |
| CCOC(=O)c1c(C=O)c(C)n(Cc2ccc(Cl)cc2)c1C | 5.11 |
| Cl.O=C(Nc1ncccc1Cl)c1cccc(F)c1 | 8.62 |
| Cc1ccc(O)c(NC(=S)NC(=O)/C=C/c2ccco2)c1 | 12.8 |
| COc1cccc(Nc2nc(-c3ccc(O)cc3)cs2)c1 | 14.2 |
| COc1ccc(C2C(C#N)=C(N)Oc3c2c(=O)oc2ccccc32)cc1Cn1cc([N+](=O)[O-])cn1 (stereo not drawn) | 5.66 |

| Structure (SMILES) | hERG current change (%, negative = inhibition) at 1uM [%] |
| --- | --- |
| Cc1cc(NC(=O)NC(=O)c2ccccc2)no1 | 15.5 |
| CC(NC(=O)C(Cc1ccccc1)n1cccc1)c1ccccc1 (stereo not drawn) | 12.9 |
| CC1CCN(S(=O)(=O)c2ccc3[nH]c(=O)ccc3c2)CC1 | 2.18 |
| CCCCn1c(N)c(N(CC)C(=O)c2cc3c(s2)CCCCC3)c(=O)[nH]c1=O | 2.51 |
| O=C(Nc1ccccn1)c1ccc2c(c1)OCO2 | 10.7 |
| CN(C)C(=O)N1CCCC(C(=O)NCCc2ccccc2)C1 (stereo not drawn) | 7.4 |
| O=C1NCCN(Cc2ccc(-c3ccccc3)cc2)C1CC(=O)N1CCN(CCO)CC1 (stereo not drawn) | 14.8 |
| O=C(Nc1ccc(OC(F)(F)F)cc1)C1CC(=O)N(Cc2ccco2)C1 (stereo not drawn) | 7.93 |
| Cc1ccc(NC(=O)CCNS(=O)(=O)c2cc(Br)cnc2N)cc1Cl | 3.12 |
| COc1ccc(CN(C)CC(=O)Nc2c(C)cccc2C)c(OC)c1 | 14.3 |
| CN(C)c1ncc(S(=O)(=O)c2ccccc2)c(N)n1 | 6.11 |
| O=S(=O)(NC1CCCCC1)c1ccc(S(=O)(=O)N2CCN3CCCC3C2)cc1 (stereo not drawn) | 7.24 |
| CC1CCN(CCNC(=O)C2CCCN(S(=O)(=O)c3cccc4nonc34)C2)CC1 (stereo not drawn) | -0.543 |
| CCc1nnc(NS(=O)(=O)c2ccc(NC(=S)NC(=O)/C=C/c3ccccc3)cc2)s1 | 6.09 |
| COc1ccccc1N(Cc1ccccc1)S(=O)(=O)c1cccc(C(=O)Nc2ccccn2)c1 | 2.77 |
| CCN(CC(=O)Nc1ccccc1C(F)(F)F)C(=O)CCSc1ccc(F)cc1 | 7.38 |
| Cc1ccc(NC(=O)Cc2nnc(N)s2)cc1 | 6.91 |
| Cc1cc(O)c2c(-c3ccccc3)cc(=O)oc2c1 | -3.72 |
| N#CC(C#N)=Cc1c(N2CCN(c3ccccc3)CC2)nc2ccccn2c1=O | 10.6 |
| Cc1ccc(N2C(=O)c3cccc4c(N)ccc(c34)C2=O)c2cccnc12 | 13.3 |
| O=C(CSc1nnc(-c2ccc3c(c2)OCCO3)o1)NC1CCCCC1 | 5.96 |
